Here are results for 33 molecules from paper PMC9574860, “Chemical Toolkit for PARK7: Potent, Selective, and High-Throughput” (Journal of Medicinal Chemistry, 2022).

Screen size: about 7,900 compounds; about 400 (5.1%) showed an effect of 50% or more. This is one part of the list.

Sequence of Parkinson's disease protein 7 (PARK7/DJ1) (Q99497 whole entry, looked up, the tested form may be a part): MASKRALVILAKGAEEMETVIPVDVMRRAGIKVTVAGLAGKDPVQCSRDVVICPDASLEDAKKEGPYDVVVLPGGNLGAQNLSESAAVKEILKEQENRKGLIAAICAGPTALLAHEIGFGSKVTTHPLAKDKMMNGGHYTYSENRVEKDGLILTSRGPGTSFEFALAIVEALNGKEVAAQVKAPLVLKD

This assay addresses Parkinson's disease protein 7 (PARK7/DJ1) (human, UniProt Q99497). Briefly: primary screen, percent inhibition; read as competition with a fluorescent probe by fluorescence polarization; higher = more effect of the substance. The note with it: 100 µM. The protocol: The screen was conducted using the conditions as described above in 1536-well plates (Corning 3724) with a reaction volume of 8 μL per well. The compound library containing 7887 covalent fragments was purchased at Enamine Ltd. and received as 100 mM DMSO stocks in 384 well LDV Echo plates (Labcyte LP-0200). Stock solutions of 0.26 μM PARK7 and 80 nM JYQ-107 were prepared. Using a Labcyte Echo550 acoustic dispenser, 8 nL of the DMSO stock solution of the library compounds was transferred from the source plates into the empty 1536-well screening plates to obtain a 100 μM final compound concentration. Next, PARK7 (6 μL, final concentration 0.2 μM) was dispensed using a Biotek MultiflowFX liquid dispenser and incubated for 2 h, followed by dispensing the probe JYQ-107 (2 μL, final concentration 20 nM). After 2 h incubation, the FP signal was recorded on a BMG Labtech PHERAstar plate reader (λex/em 480/520 nm). The relative loss of FP signal compared with reference controls was used to calculate the remaining enzyme activity.
Consider `CC(=CC#N)c1ccccc1`, for which the Inhibition % is given as 6.88%. Then `Cn1c(=O)c2c(S)nc(C(C)(C)C)nc2n(C)c1=O`, with -0.398%. With `C#CC(=O)Nc1ccc(O)c(C(=O)O)c1`, the Inhibition % came to 9.44%. Regarding `CCCNc1ccccc1NC(=O)c1c[nH]c(C#N)c1`, the Inhibition % was 2.91%.

Take `C=CC(=O)N1CCCC1c1ncc(Br)cn1` (stereo not drawn): the Inhibition % is given as 10.2%. Then `O=S(=O)(c1ccc(S)nc1)N1CCOCC1`, with 28.6%; and `Cc1c(C#N)c(NC(=O)CCl)n(Cc2ccccc2)c1C`, with 25.5%; and `CC1(C)OB(c2ccc(Cn3ccnc3)cc2)OC1(C)C`, with 0.184%. For the molecule `Oc1cc(C2CC2)nc(S)n1`, the Inhibition % is listed as 16.9%. Then `CC1(C)OB(c2cccc(CN3CCCS3(=O)=O)c2)OC1(C)C`, with 4.68%; and `O=C(CCl)NC(c1ccccc1)c1cccs1` (stereo not drawn), with 20.4%. With `CCOc1ccc(S(=O)(=O)n2cccn2)c(C)c1C`, the Inhibition % was found to be 2.55%.

Take `C=CC(=O)NC[C@H]1C[C@@H](OC)C1`: the Inhibition % is given as 9.78%.

As to `O=C(NC1CCOC2(CCSC2)C1)c1cccnc1S` (stereo not drawn), the Inhibition % is reported as 3.43%. Take `Cc1nn(C)c(C)c1C=CC(=O)N1CCCCC1C` (stereo not drawn): the Inhibition % was -1.08%. As to `O=C(CCCl)N1CCN(c2ncccn2)CC1`, the Inhibition % is recorded as 3.8%.

Regarding `Cn1nc(-c2ccccc2)cc1B1OC(C)(C)C(C)(C)O1`, the Inhibition % was found to be 16.2%. For the molecule `NC(=O)Cn1c(-c2ccccc2)noc1=O`, the Inhibition % is recorded as 6.77%.

Take `C=CC(=O)NCc1nc(N(C)C)no1`: the Inhibition % was found to be 2.57%. For `CC(C)N(C)S(=O)(=O)c1ccc(NC(=O)CCl)cc1`, the Inhibition % was determined as 83.8%. With `O=C(CCl)Nc1ccccc1I`, the Inhibition % came to 12.2%.

As to `NS(=O)(=O)c1ccc(NC(=O)CCl)cc1`, the Inhibition % is given as 69.2%. Take `C=CC(=O)Nc1ccc(N2CCCCC2)cn1`: the Inhibition % was 26.8%. The value for `C=CC(=O)N(C)Cc1oc2c(C)cccc2c1C` was 4.58%; that for `Cl.NCc1cccc(CN2C(=O)CSC2=O)c1` was 7.23%; that for `C=CC(=O)N1Cc2cnn(-c3ccccc3)c2C1` was 6.47%.

Take `Cc1cc(C)c(S(=O)(=O)n2cccn2)cc1C`: the Inhibition % is recorded as 2.55%.

Regarding `Cl.NC1CCCN(S(=O)(=O)C=Cc2cccc(Cl)c2)C1` (stereo not drawn), the Inhibition % is reported as 4.64%. In the case of `N#CC=CN1CCN(c2ccccn2)CC1`, the Inhibition % came out at 7.23%. On to `CC(C)Cc1ncc(CNC(=O)c2cccnc2S)s1`, for which the Inhibition % turned out to be 10.6%. As to `Cl.O=C(Oc1ccccc1)N1CCNCC1`, the Inhibition % was determined as 4.3%.

`C[C@@H]1O[C@H]1c1cccc(Cl)c1` (racemic): the Inhibition % was found to be 3.87%.

On to `O=C(CCl)Nc1ccccc1Cc1ccccc1`, for which the Inhibition % is 7.34%.
